# Laboratory results as given in article PMC4336329 (PLoS ONE, 2015).
# Screen size: about 310,000 compounds; about 2,200 (0.71%) showed an effect of 50% or more. Effects have a minus sign here. This is one part of the list.
# Target: human ether-à-go-go-related gene (hERG) potassium channel (human, UniProt Q12809)
# Assay: primary screen, population patch clamp on CHO cells stably expressing hERG
# Chain of human ether-à-go-go-related gene (hERG) potassium channel (Q12809 whole entry, looked up): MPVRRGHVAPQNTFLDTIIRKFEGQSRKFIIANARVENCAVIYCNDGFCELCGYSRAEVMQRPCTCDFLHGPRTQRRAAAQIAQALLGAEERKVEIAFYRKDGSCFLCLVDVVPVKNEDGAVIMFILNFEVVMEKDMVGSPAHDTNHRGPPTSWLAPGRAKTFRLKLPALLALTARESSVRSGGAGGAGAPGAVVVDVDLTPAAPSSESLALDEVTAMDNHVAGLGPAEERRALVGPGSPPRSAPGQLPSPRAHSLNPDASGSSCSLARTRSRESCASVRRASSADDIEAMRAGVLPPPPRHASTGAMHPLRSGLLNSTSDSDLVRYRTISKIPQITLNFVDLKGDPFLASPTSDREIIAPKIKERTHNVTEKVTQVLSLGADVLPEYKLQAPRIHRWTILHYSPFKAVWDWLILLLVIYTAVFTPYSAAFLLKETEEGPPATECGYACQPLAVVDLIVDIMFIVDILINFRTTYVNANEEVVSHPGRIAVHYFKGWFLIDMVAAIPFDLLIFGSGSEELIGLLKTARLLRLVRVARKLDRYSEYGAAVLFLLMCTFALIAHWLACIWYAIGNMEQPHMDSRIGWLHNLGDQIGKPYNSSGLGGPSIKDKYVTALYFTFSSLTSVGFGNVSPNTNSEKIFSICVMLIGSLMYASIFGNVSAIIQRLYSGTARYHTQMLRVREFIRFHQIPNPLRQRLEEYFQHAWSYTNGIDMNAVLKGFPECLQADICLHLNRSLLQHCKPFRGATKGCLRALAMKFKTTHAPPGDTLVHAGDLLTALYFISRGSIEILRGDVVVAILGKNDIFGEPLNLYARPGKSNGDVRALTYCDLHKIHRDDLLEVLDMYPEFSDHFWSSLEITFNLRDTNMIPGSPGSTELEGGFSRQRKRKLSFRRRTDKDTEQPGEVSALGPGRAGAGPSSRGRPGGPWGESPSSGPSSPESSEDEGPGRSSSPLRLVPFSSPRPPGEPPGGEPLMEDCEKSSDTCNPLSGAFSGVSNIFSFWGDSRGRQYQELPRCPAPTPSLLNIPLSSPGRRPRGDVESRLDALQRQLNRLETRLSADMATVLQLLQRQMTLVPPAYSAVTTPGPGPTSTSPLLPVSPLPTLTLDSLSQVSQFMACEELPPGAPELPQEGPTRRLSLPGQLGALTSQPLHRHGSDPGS
row,SMILES,"hERG current change (%, negative = inhibition) at 1uM"
1,C=CCn1nnnc1-c1cc(Cl)cc(Cl)c1,11.2%
2,CCc1nnc(NC(=O)CSc2ccc(-c3ccc(C)cc3)nn2)s1,7.8%
3,Cc1nsc(Nc2ccc([N+](=O)[O-])cc2)c1C#N,14.5%
4,Cc1cccc(NC(=O)CSc2nc3nc(C)cc(C)n3n2)c1,-12.9%
5,CN1CCN(CC2(O)CCN(S(=O)(=O)c3ccc(Cl)cc3)CC2)CC1,-9.27%
6,S=c1[nH]nc(-c2n[nH]c3c2CCC3)n1/N=C/C=C/c1ccco1,26.2%
7,O=C1C2C(C(=O)N1CCN1CCN(Cc3ccc([N+](=O)[O-])cc3)CC1)[C@H]1C=C[C@@H]2C1 (stereo partly drawn),-5.11%
8,Cc1ccc(C(=O)C[n+]2ccc3ccccc3c2)cc1.[Br-],-1.86%
9,CCC(=O)N=C1SC2CS(=O)(=O)CC2N1c1cccc(OC)c1 (stereo not drawn),4.5%
10,Cc1cc(C)c2nc(NNC(=O)c3ccc(S(=O)(=O)N4CCc5ccccc5C4)cc3)sc2c1,6.7%
11,O=C(CSc1ccc2ccccc2c1)N1CCN(c2ccc(O)cc2)CC1,8.88%
12,O=C(Cc1nnc(NC(=O)Nc2ccccc2)s1)Nc1ccccc1,14%
13,COc1ccc(Nc2nc(-c3ccccc3O)nc3ccccc23)cc1,13.8%
14,CCn1cc(Br)c(C(=O)Nc2ccc(OC)cc2)n1,13.1%
15,O=C(COc1ccc(Cl)cc1Cl)c1ccc[nH]1,-1.33%
16,CCn1c(N)c(C(=O)NCc2ccc3c(c2)OCO3)sc1=S,15.4%
17,COc1ccc(NC(=O)C2COc3ccccc3O2)cc1 (stereo not drawn),6.61%
18,O=C(OCC(=O)N1CCCC1)c1cc(F)c(F)cc1Cl,15.3%
19,Cc1ccc(N2CCN(C(=O)N3CCOCC3)CC2)cc1C,10.9%
20,CN(C)CC(O)COC(c1ccc(Cl)cc1)c1ccc(Cl)cc1 (stereo not drawn),-48.9%
21,CC(C)(C)n1ncc2c(=O)n(CC(=O)Nc3ccc4c(c3)OCCO4)cnc21,9.32%
22,CCN(CC)S(=O)(=O)c1ccc(C)c(NC(=S)N2CCN(c3ccccn3)CC2)c1,-31.5%
23,CCC(Sc1nc2ccccc2c(=O)n1CCN1CCOCC1)C(=O)NCc1cccnc1 (stereo not drawn),1.23%

row,SMILES,"hERG current change (%, negative = inhibition) at 1uM"
1,CCCCN1C(=S)NC[C@@H]1c1ccccc1,5.87%
2,O=C(O)c1ccc(-c2noc(-c3ccccc3Cl)n2)cc1,7.03%
3,CN(C)CCn1c(=O)n(-c2cccc(Cl)c2)c(=O)c2c3c(sc21)CCCCC3,6.87%
4,O=C1Cc2ccccc2C(c2ccc(Br)cc2)N1 (stereo not drawn),6.61%
5,COc1ccc(CCNC(=O)NC(C(F)(F)F)C(F)(F)F)cc1OC,5.68%
6,CC(C)c1ccc(/C=N/NC(=O)CN(c2cccc(Cl)c2Cl)S(C)(=O)=O)cc1,18.2%
7,COc1cccc(C(=O)Nc2ccc3[nH]ncc3c2)c1,-26.3%
8,COc1cc(C(=O)NCC(=O)N/N=C(\C)Cc2ccccc2)cc(OC)c1OC,17.1%
9,COc1cccc(-c2nn3c(-c4ccco4)nnc3s2)c1,1.58%
10,Cc1occc1C(=O)NNC(=O)Nc1ccc([N+](=O)[O-])cc1,-7.42%
11,Cc1ncc([N+](=O)[O-])n1CC(=O)Nc1ccc(F)cc1F,16.3%
12,COc1ccc(C2=NN3C(C2)c2ccccc2OC3c2cccs2)cc1 (stereo not drawn),5.6%
13,Cc1ccc(NC(=O)c2c(F)cccc2Cl)cc1S(=O)(=O)N1CCOCC1,16.2%
14,Cc1ccc(N(C(=O)c2ccc3c(c2)OCO3)C2C=CS(=O)(=O)C2)cc1C (stereo not drawn),8.37%
15,Cc1coc2c(C)c3oc(=O)c(CCC(=O)N(C)CC(=O)O)c(C)c3cc12,15.5%
16,CCC(C)N1C(=O)C2C(C(=O)Nc3cccc(OC)c3)C3C=CC2(O3)C1C(=O)NC1CCCCC1C (stereo not drawn),0.648%
17,O=C(CSCc1ccc(Cl)cc1)NN=C1CCCCCC1,5.97%
18,CCOC(=O)c1c(S(=O)(=O)NCc2ccc(C)o2)c(C)n(C)c1C,-0.736%
19,N/C(=N\OC(=O)CSc1ccccc1)c1ccc([N+](=O)[O-])cc1,3.22%
20,Cc1cc(Br)ccc1NC(=O)CN1C(=O)C2CC=CCC2C1=O (stereo not drawn),2.16%
21,C[N+](C)(CC#N)C/C=C\c1ccccc1.[Cl-],7.24%
22,O=C(O)C1Cc2ccccc2CN1C(=O)CSc1nnc2ccccn12 (stereo not drawn),8.7%
